{"source": "paper PMC4336329", "about": "(PLoS ONE, 2015)", "note": "Screen size: about 310,000 compounds; about 14,000 (4.5%) showed an effect of 50% or more. The effect is printed as a negative number. Some of the results follow.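 Also: peak tail current of the secondary pulse compared with the same well before compound.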", "data": [{"target": "human ether-à-go-go-related gene (hERG) potassium channel (human, UniProt Q12809)", "sequence (Q12809 whole entry, looked up)": "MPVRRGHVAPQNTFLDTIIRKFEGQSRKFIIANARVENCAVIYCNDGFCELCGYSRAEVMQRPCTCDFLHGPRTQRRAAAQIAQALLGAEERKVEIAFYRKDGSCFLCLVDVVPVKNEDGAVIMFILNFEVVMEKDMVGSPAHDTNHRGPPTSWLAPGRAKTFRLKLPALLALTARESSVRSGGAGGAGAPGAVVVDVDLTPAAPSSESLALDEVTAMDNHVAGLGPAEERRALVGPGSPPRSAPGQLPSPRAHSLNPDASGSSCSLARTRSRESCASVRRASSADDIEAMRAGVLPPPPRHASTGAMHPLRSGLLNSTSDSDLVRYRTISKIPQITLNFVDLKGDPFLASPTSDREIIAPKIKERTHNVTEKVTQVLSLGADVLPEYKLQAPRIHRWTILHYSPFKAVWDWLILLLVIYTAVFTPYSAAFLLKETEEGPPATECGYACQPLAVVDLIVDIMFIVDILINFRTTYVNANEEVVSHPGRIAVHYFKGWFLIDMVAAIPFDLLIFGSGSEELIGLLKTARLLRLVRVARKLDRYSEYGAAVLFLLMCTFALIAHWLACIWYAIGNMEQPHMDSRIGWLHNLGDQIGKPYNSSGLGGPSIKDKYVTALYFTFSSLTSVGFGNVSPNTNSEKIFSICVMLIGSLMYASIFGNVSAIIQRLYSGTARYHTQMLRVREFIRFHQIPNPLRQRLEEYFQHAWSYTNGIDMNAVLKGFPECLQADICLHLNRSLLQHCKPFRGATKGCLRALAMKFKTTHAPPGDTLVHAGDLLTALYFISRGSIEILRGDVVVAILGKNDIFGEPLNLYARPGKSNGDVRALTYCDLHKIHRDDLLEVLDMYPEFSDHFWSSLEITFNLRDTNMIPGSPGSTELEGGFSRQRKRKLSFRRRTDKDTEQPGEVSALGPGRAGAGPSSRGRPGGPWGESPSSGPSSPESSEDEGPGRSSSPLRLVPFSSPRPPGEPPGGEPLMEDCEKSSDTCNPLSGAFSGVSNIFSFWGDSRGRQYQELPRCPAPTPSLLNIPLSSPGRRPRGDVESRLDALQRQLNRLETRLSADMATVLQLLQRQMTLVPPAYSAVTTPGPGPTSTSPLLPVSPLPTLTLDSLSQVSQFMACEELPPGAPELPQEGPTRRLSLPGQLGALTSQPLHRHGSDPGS", "assay": "primary screen, population patch clamp on CHO cells stably expressing hERG", "units": {"hERG current change (%, negative = inhibition) at 10uM": "%"}, "values": [{"smiles": "O=C(NCc1ccccc1)C(Cc1ccccc1)N1C(=O)C2C3CCC(C3)C2C1=O", "note": "(centres unmarked)", "hERG current change (%, negative = inhibition) at 10uM": -6.78}, {"smiles": "Br.Cc1cc(C)cc(Nc2nc(-c3ccc(S(=O)(=O)N4CCCC4)cc3)cs2)c1", "hERG current change (%, negative = inhibition) at 10uM": 19.5}, {"smiles": "CSCCCN1CCCC(CO)(Cc2ccc(F)cc2)C1", "note": "(centres unmarked)", "hERG current change (%, negative = inhibition) at 10uM": -30.1}, {"smiles": "O=C(COC(=O)/C=C/c1ccc(F)cc1)NCc1cccs1", "hERG current change (%, negative = inhibition) at 10uM": 8.26}, {"smiles": "Cc1c(C(=O)Nn2cnnc2)oc2ccccc12", "hERG current change (%, negative = inhibition) at 10uM": -4.79}, {"smiles": "CCN(CC)CCNC(=O)CCn1c(=S)[nH]c2cc3c(cc2c1=O)OCO3", "hERG current change (%, negative = inhibition) at 10uM": -0.98}, {"smiles": "CC(C)Cc1cc(C(=O)NCCCN2CCOCC2)no1", "hERG current change (%, negative = inhibition) at 10uM": -6.67}, {"smiles": "Cc1ccc(C(=O)OCC(=O)Nc2cc(S(=O)(=O)N3CCOCC3)ccc2C)cc1", "hERG current change (%, negative = inhibition) at 10uM": -20.1}, {"smiles": "CCn1cc(C(=O)NCCCN(C)c2ccccc2)c(=O)c2cc(S(=O)(=O)N(C)C)ccc21", "hERG current change (%, negative = inhibition) at 10uM": -19.5}, {"smiles": "c1ccc(C2=Nc3ccccc3SC2c2nc3ccccc3[nH]2)cc1", "note": "(centres unmarked)", "hERG current change (%, negative = inhibition) at 10uM": -33.3}, {"smiles": "CCN(CC)C(=O)Cn1cc(C(=O)C(=O)N2CCN(Cc3ccc4c(c3)OCO4)CC2)c2ccccc21", "hERG current change (%, negative = inhibition) at 10uM": -2.05}, {"smiles": "Cc1cc(C(=O)O)ccc1N/C=C1\\CCCC(C)C1=O", "note": "(centres unmarked)", "hERG current change (%, negative = inhibition) at 10uM": -0.227}, {"smiles": "CN(C)C(=O)Oc1ccc(Br)cc1C(=O)Nc1ccc(F)c(Cl)c1", "hERG current change (%, negative = inhibition) at 10uM": -17.8}, {"smiles": "O=c1c(F)cn(C2CCCO2)c(=O)n1Cc1ccc(Cl)cc1", "note": "(centres unmarked)", "hERG current change (%, negative = inhibition) at 10uM": -26.8}, {"smiles": "Cc1cc(NC(C)C)n2c(nc3ccccc32)c1C#N", "hERG current change (%, negative = inhibition) at 10uM": 25.6}, {"smiles": "O=C(Nc1ccc(F)cc1F)c1cccc(S(=O)(=O)N2CCCCC2)c1", "hERG current change (%, negative = inhibition) at 10uM": -9.6}, {"smiles": "COc1ccc(C(=O)N2CCn3c(C)ccc3C2C)cc1", "note": "(centres unmarked)", "hERG current change (%, negative = inhibition) at 10uM": 8.7}, {"smiles": "COc1ccc(C2SCC(=O)Nc3c2c(C)nn3C2CCOC(C)(C)C2)cc1", "note": "(centres unmarked)", "hERG current change (%, negative = inhibition) at 10uM": 6.75}, {"smiles": "CN(C)c1cccc(NC(=O)c2ccco2)c1", "hERG current change (%, negative = inhibition) at 10uM": -73.3}, {"smiles": "O=C(Cn1nc(C(F)F)cc1C(F)F)NNC(=S)Nc1ccc(Cl)cc1", "hERG current change (%, negative = inhibition) at 10uM": 15.5}, {"smiles": "CC(=O)c1ccc(NC(=O)CSc2ccc3nnc(-c4ccccn4)n3n2)cc1", "hERG current change (%, negative = inhibition) at 10uM": -64.7}, {"smiles": "Cc1c(/C=N\\NC(=O)c2cc3ccccc3o2)c2ccccc2n1C", "hERG current change (%, negative = inhibition) at 10uM": -5.62}, {"smiles": "Cc1ccc(-c2nnc(Nc3ccc(O)cc3)c3ccccc23)cc1S(=O)(=O)NCCO", "hERG current change (%, negative = inhibition) at 10uM": 8.79}, {"smiles": "CCOc1cc(C(=O)OCC(=O)c2c(C)[nH]c3ccccc23)ccc1OCC(=O)N1CCOCC1", "hERG current change (%, negative = inhibition) at 10uM": 2.82}, {"smiles": "COc1ccc(Cl)cc1NC(=O)C1CC(c2ccccc2O)=NO1", "note": "(centres unmarked)", "hERG current change (%, negative = inhibition) at 10uM": 9.15}, {"smiles": "CCOc1cccc(C(=O)NNC(=O)C2C3C=CC(C3)C2C(=O)O)c1", "note": "(centres unmarked)", "hERG current change (%, negative = inhibition) at 10uM": 16.6}, {"smiles": "CCOCCCNCc1ccc(OCC(=O)N2CCOCC2)c(OC)c1.Cl", "hERG current change (%, negative = inhibition) at 10uM": 4.74}, {"smiles": "COc1ccc(N(CC(=O)Nc2ccc(C)cn2)S(=O)(=O)c2c(C)noc2C)cc1", "hERG current change (%, negative = inhibition) at 10uM": -24.8}, {"smiles": "O=C1O/C(=C/c2ccccc2)c2ccccc21", "hERG current change (%, negative = inhibition) at 10uM": -3.12}, {"smiles": "O=C(CCC(=O)N1CCOc2ccc(Cl)cc21)NCCCN1CCN(c2ccccc2F)CC1", "hERG current change (%, negative = inhibition) at 10uM": -66.5}, {"smiles": "Cc1nc(NC(=O)c2cccnc2)ccc1Br", "hERG current change (%, negative = inhibition) at 10uM": -13.3}, {"smiles": "CCN(c1ccccc1)S(=O)(=O)c1cc(C(=O)Nc2ccccc2Cl)ccc1F", "hERG current change (%, negative = inhibition) at 10uM": 8}, {"smiles": "CCN(CC)c1ccc(NC(=O)COC(=O)CSc2ccc(Br)cc2C)cc1.O=S(=O)(O)O", "hERG current change (%, negative = inhibition) at 10uM": -0.119}, {"smiles": "N#Cc1ccccc1OCC(=O)N1N=C(c2cccs2)CC1c1ccco1", "note": "(centres unmarked)", "hERG current change (%, negative = inhibition) at 10uM": -6.54}, {"smiles": "C=CCn1c(-c2ccc3ncccc3c2)n[nH]c1=S", "hERG current change (%, negative = inhibition) at 10uM": 19.6}, {"smiles": "CN1CCN(c2ncc(C=O)s2)CC1", "hERG current change (%, negative = inhibition) at 10uM": 10.5}, {"smiles": "Cc1cccc(NC(=S)NC(=O)CC2CC(C)(C)OC2=O)c1", "note": "(centres unmarked)", "hERG current change (%, negative = inhibition) at 10uM": 4.55}, {"smiles": "Cc1cc(C)nc(N2CCC(C(=O)NCc3cccc(C(F)(F)F)c3)CC2)n1", "hERG current change (%, negative = inhibition) at 10uM": 7.21}, {"smiles": "COc1ccc(-c2cc(C(=O)NC3CC3)c3ccccc3n2)cc1", "hERG current change (%, negative = inhibition) at 10uM": -64.5}, {"smiles": "COc1ccc(N2C(=O)CC(Sc3nc4ccccc4s3)C2=O)cc1OC", "note": "(centres unmarked)", "hERG current change (%, negative = inhibition) at 10uM": 12.2}, {"smiles": "CCOC(=O)C1=C(N)Oc2cc(C)oc(=O)c2C1c1cccnc1", "note": "(centres unmarked)", "hERG current change (%, negative = inhibition) at 10uM": 13.5}, {"smiles": "Cc1nnc(SCc2c(Cl)cccc2Cl)n(N)c1=O", "hERG current change (%, negative = inhibition) at 10uM": -34.9}, {"smiles": "CCN1CCN(CCNC(=O)C2CCCN(Cc3nc(-c4cccc(Cl)c4)oc3C)C2)CC1", "note": "(centres unmarked)", "hERG current change (%, negative = inhibition) at 10uM": -6.73}, {"smiles": "CCOC(=O)C1=C(C)N(C)C(C)=C(C(=O)OCC)C1c1ccc(Cl)cc1", "hERG current change (%, negative = inhibition) at 10uM": -17.9}, {"smiles": "CCN1CCN(CCOc2ccc(Cl)cc2)CC1.O=C(O)C(=O)O", "hERG current change (%, negative = inhibition) at 10uM": -34.3}, {"smiles": "COc1ccccc1C(=O)NCCCNC(=O)c1cnccn1", "hERG current change (%, negative = inhibition) at 10uM": 18.3}, {"smiles": "O=C(Nc1cccc(-n2cnnn2)c1)c1ccoc1COc1ccc(Cl)cc1", "hERG current change (%, negative = inhibition) at 10uM": 5.57}, {"smiles": "COc1ccc(N2CCN(C(=O)CSc3nnc(NC(=O)C4CCC4)s3)CC2)cc1", "hERG current change (%, negative = inhibition) at 10uM": 14}, {"smiles": "Nc1c2c(nc3sc4c(c13)CCCCC4)CCCC2", "hERG current change (%, negative = inhibition) at 10uM": -48.3}, {"smiles": "CC(C)[C@H](NC(=O)NCc1ccco1)C(=O)O", "hERG current change (%, negative = inhibition) at 10uM": 10.9}, {"smiles": "Cc1cc(N2CCOCC2)c(F)cc1C(=O)c1ccccc1", "hERG current change (%, negative = inhibition) at 10uM": -10.9}, {"smiles": "CC(C)C[C@@H](C(=O)NCC1CCCO1)N1C(=O)N2CCc3c([nH]c4ccccc34)[C@@]2(C)C1=O", "note": "(some centres unmarked)", "hERG current change (%, negative = inhibition) at 10uM": -24.7}, {"smiles": "NC(=O)[C@H]1CC2(CC(c3cccc(NC(=O)[C@H]4CCC(=O)N4)c3)=NO2)CN1C(=O)c1ccccc1C(=O)c1ccccc1", "note": "(some centres unmarked)", "hERG current change (%, negative = inhibition) at 10uM": 14.7}, {"smiles": "COc1ccc(C(=O)NCc2nnc(SCC(=O)c3ccc(F)cc3)n2C)cc1OC", "hERG current change (%, negative = inhibition) at 10uM": -36.3}, {"smiles": "O=C(NC1CCCc2ccccc21)c1ccccc1Cl", "note": "(centres unmarked)", "hERG current change (%, negative = inhibition) at 10uM": 29.8}, {"smiles": "O=C(CSC1=NNC(c2ccccn2)S1)Nc1ccc(C(F)(F)F)cc1", "note": "(centres unmarked)", "hERG current change (%, negative = inhibition) at 10uM": 18.2}]}]}
